# The supplement of paper PMC8728848
# The other results are listed elsewhere or left out.
# B1: PfulAvr4 (Pseudocercospora fuligena) (protein)
# chain: HHHHHHDYKDDDDKTYVQDKTPAFVCPAADIKTTKCLGPKDCLYPSPKTCNGYIQCSPADDSYLTGIIHEMPCPSGLLWNDNKKWCDWPENTTCGLVKSAGATEVDATKQGPTPGKYHG
# Experiments:
# Test in all cases: glycan array binding signal (z-score within array); higher = stronger binding
# Details in all cases: glycan notation: IUPAC condensed, linker removed
# Glc(b1-6)Glc = target: Glc(b1-6)Glc
# Outline: (§1)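 Glycan array data were curated from 3228 arrays in the Consortium for Functional Glycomics database and kept only where the protein sequence was available. Glycan names were converted to IUPAC-condensed notation, and columns mapping to the same glycan were averaged. The binding signal is a within-array Z-score, averaged across arrays of the same protein sequence at different concentrations or buffers and across linkers. Negative Z-scores can be read as non-binding.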
# GlcA(b1-3)Gal = target: GlcA(b1-3)Gal
# Outline: as §1
# GlcA(b1-3)GlcNAc = target: GlcA(b1-3)GlcNAc
# Outline: as §1
# GlcA(b1-6)Gal = target: GlcA(b1-6)Gal
# Outline: as §1
# [1] = target: GlcA3S(b1-3)Gal(b1-4)GlcNAc(b1-2)Man
# Outline: as §1
# [2] = target: GlcA3S(b1-3)Gal(b1-4)GlcNAc(b1-3)Gal(b1-4)Glc
# Outline: as §1
# [3] = target: GlcNAc(a1-3)Gal(b1-4)GlcNAc
# Outline: as §1
# [4] = target: GlcNAc(a1-4)Gal(b1-3)GlcNAc
# Outline: as §1
# [5] = target: GlcNAc(a1-4)Gal(b1-4)GalNAc
# Outline: as §1
# [6] = target: GlcNAc(a1-4)Gal(b1-4)GlcNAc
# Outline: as §1
# [7] = target: GlcNAc(a1-4)Gal(b1-4)GlcNAc(b1-3)Gal(b1-4)Glc
# Outline: as §1
# [8] = target: GlcNAc(a1-4)Gal(b1-4)GlcNAc(b1-3)Gal(b1-4)GlcNAc
# Outline: as §1
# [9] = target: GlcNAc(a1-4)Gal(b1-4)GlcNAc(b1-3)Gal(b1-4)GlcNAc(b1-3)Gal(b1-4)GlcNAc
# Outline: as §1
# [10] = target: GlcNAc(a1-4)Gal(b1-4)GlcNAc(b1-3)Gal(b1-4)[Fuc(a1-3)]GlcNAc(b1-3)Gal(b1-4)[Fuc(a1-3)]GlcNAc
# Outline: as §1
# [11] = target: GlcNAc(a1-6)Gal(b1-4)GlcNAc
# Outline: as §1
# [12] = target: GlcNAc(b1-2)Gal(b1-3)GalNAc
# Outline: as §1
# [13] = target: GlcNAc(b1-2)Man(a1-3)[GlcNAc(b1-2)Man(a1-6)]Man(b1-4)GlcNAc(b1-4)GlcNAc
# Outline: as §1
# [14] = target: GlcNAc(b1-2)Man(a1-3)[GlcNAc(b1-2)Man(a1-6)]Man(b1-4)GlcNAc(b1-4)[Fuc(a1-6)]GlcNAc
# Outline: as §1
# [15] = target: GlcNAc(b1-2)Man(a1-3)[GlcNAc(b1-4)][GlcNAc(b1-2)Man(a1-6)]Man(b1-4)GlcNAc(b1-4)GlcNAc
# Outline: as §1
# [16] = target: GlcNAc(b1-2)Man(a1-3)[GlcNAc(b1-4)][GlcNAc(b1-2)Man(a1-6)]Man(b1-4)GlcNAc(b1-4)[Fuc(a1-6)]GlcNAc
# Outline: as §1
# [17] = target: GlcNAc(b1-2)[GlcNAc(b1-4)]Man(a1-3)[GlcNAc(b1-2)Man(a1-6)]Man(b1-4)GlcNAc(b1-4)GlcNAc
# Outline: as §1
# [18] = target: GlcNAc(b1-2)[GlcNAc(b1-4)]Man(a1-3)[GlcNAc(b1-4)][GlcNAc(b1-2)Man(a1-6)]Man(b1-4)GlcNAc(b1-4)GlcNAc
# Outline: as §1
# [19] = target: GlcNAc(b1-2)[GlcNAc(b1-4)]Man(a1-3)[GlcNAc(b1-4)][GlcNAc(b1-2)[GlcNAc(b1-6)]Man(a1-6)]Man(b1-4)GlcNAc(b1-4)GlcNAc
# Outline: as §1
# [20] = target: GlcNAc(b1-2)[GlcNAc(b1-4)]Man(a1-3)[GlcNAc(b1-4)][GlcNAc(b1-2)[GlcNAc(b1-6)]Man(a1-6)]Man(b1-4)GlcNAc(b1-4)[Fuc(a1-6)]GlcNAc
# Outline: as §1
# [21] = target: GlcNAc(b1-2)[GlcNAc(b1-6)]Man(a1-6)[GlcNAc(b1-2)Man(a1-3)]Man(b1-4)GlcNAc(b1-4)GlcNAc
# Outline: as §1
# [22] = target: GlcNAc(b1-2)[GlcNAc(b1-6)]Man(a1-6)[GlcNAc(b1-2)Man(a1-3)]Man(b1-4)GlcNAc(b1-4)[Fuc(a1-6)]GlcNAc
# Outline: as §1
# [23] = target: GlcNAc(b1-2)[GlcNAc(b1-6)]Man(a1-6)[GlcNAc(b1-4)][GlcNAc(b1-2)Man(a1-3)]Man(b1-4)GlcNAc(b1-4)GlcNAc
# Outline: as §1
# GlcNAc(b1-3)Fuc = target: GlcNAc(b1-3)Fuc
# Outline: as §1
# GlcNAc(b1-3)Gal = target: GlcNAc(b1-3)Gal
# Outline: as §1
# [24] = target: GlcNAc(b1-3)Gal(b1-3)GalNAc
# Outline: as §1
# GlcNAc(b1-3)Gal(b1-4)Glc = target: GlcNAc(b1-3)Gal(b1-4)Glc
# Outline: as §1
# [25] = target: GlcNAc(b1-3)Gal(b1-4)GlcNAc
# Outline: as §1
# [26] = target: GlcNAc(b1-3)Gal(b1-4)GlcNAc(b1-2)Man(a1-3)[GlcNAc(b1-3)Gal(b1-4)GlcNAc(b1-2)Man(a1-6)]Man(b1-4)GlcNAc(b1-4)GlcNAc
# Outline: as §1
# [27] = target: GlcNAc(b1-3)Gal(b1-4)GlcNAc(b1-2)Man(a1-3)[GlcNAc(b1-3)Gal(b1-4)GlcNAc(b1-2)Man(a1-6)]Man(b1-4)GlcNAc(b1-4)[Fuc(a1-6)]GlcNAc
# Outline: as §1
# [28] = target: GlcNAc(b1-3)Gal(b1-4)GlcNAc(b1-2)[GlcNAc(b1-3)Gal(b1-4)GlcNAc(b1-6)]Man(a1-6)[GlcNAc(b1-3)Gal(b1-4)GlcNAc(b1-2)Man(a1-3)]Man(b1-4)GlcNAc(b1-4)GlcNAc
# Outline: as §1
# [29] = target: GlcNAc(b1-3)Gal(b1-4)GlcNAc(b1-3)Gal(b1-4)GlcNAc
# Outline: as §1
# [30] = target: GlcNAc(b1-3)Gal(b1-4)GlcNAc(b1-3)Gal(b1-4)GlcNAc(b1-2)Man(a1-3)[GlcNAc(b1-3)Gal(b1-4)GlcNAc(b1-3)Gal(b1-4)GlcNAc(b1-2)Man(a1-6)]Man(b1-4)GlcNAc(b1-4)GlcNAc
# Outline: as §1
# [31] = target: GlcNAc(b1-3)Gal(b1-4)GlcNAc(b1-3)Gal(b1-4)GlcNAc(b1-2)Man(a1-3)[GlcNAc(b1-3)Gal(b1-4)GlcNAc(b1-3)Gal(b1-4)GlcNAc(b1-2)Man(a1-6)]Man(b1-4)GlcNAc(b1-4)[Fuc(a1-6)]GlcNAc
# Outline: as §1
# [32] = target: GlcNAc(b1-3)Gal(b1-4)GlcNAc(b1-3)Gal(b1-4)GlcNAc(b1-2)[GlcNAc(b1-3)Gal(b1-4)GlcNAc(b1-3)Gal(b1-4)GlcNAc(b1-6)]Man(a1-6)[GlcNAc(b1-3)Gal(b1-4)GlcNAc(b1-3)Gal(b1-4)GlcNAc(b1-2)Man(a1-3)]Man(b1-4)GlcNAc(b1-4)[Fuc(a1-6)]GlcNAc
# Outline: as §1
# [33] = target: GlcNAc(b1-3)Gal(b1-4)GlcNAc(b1-3)Gal(b1-4)GlcNAc(b1-3)Gal(b1-4)GlcNAc(b1-2)Man(a1-3)[GlcNAc(b1-3)Gal(b1-4)GlcNAc(b1-3)Gal(b1-4)GlcNAc(b1-3)Gal(b1-4)GlcNAc(b1-2)Man(a1-6)]Man(b1-4)GlcNAc(b1-4)GlcNAc
# Outline: as §1
# [34] = target: GlcNAc(b1-3)Gal(b1-4)GlcNAc(b1-3)Gal(b1-4)GlcNAc(b1-3)Gal(b1-4)GlcNAc(b1-2)Man(a1-3)[GlcNAc(b1-3)Gal(b1-4)GlcNAc(b1-3)Gal(b1-4)GlcNAc(b1-3)Gal(b1-4)GlcNAc(b1-2)Man(a1-6)]Man(b1-4)GlcNAc(b1-4)[Fuc(a1-6)]GlcNAc
# Outline: as §1
# [35] = target: GlcNAc(b1-3)Gal(b1-4)GlcNAc(b1-3)Gal(b1-4)GlcNAc(b1-3)Gal(b1-4)GlcNAc(b1-2)[GlcNAc(b1-3)Gal(b1-4)GlcNAc(b1-3)Gal(b1-4)GlcNAc(b1-3)Gal(b1-4)GlcNAc(b1-6)]Man(a1-6)[GlcNAc(b1-3)Gal(b1-4)GlcNAc(b1-3)Gal(b1-4)GlcNAc(b1-3)Gal(b1-4)GlcNAc(b1-2)Man(a1-3)]Man(b1-4)GlcNAc(b1-4)[Fuc(a1-6)]GlcNAc
# Outline: as §1
# [36] = target: GlcNAc(b1-3)Gal(b1-4)GlcNAc(b1-3)Gal(b1-4)GlcNAc(b1-3)Gal(b1-4)GlcNAc(b1-3)Gal(b1-4)GlcNAc(b1-2)Man(a1-3)[GlcNAc(b1-3)Gal(b1-4)GlcNAc(b1-3)Gal(b1-4)GlcNAc(b1-3)Gal(b1-4)GlcNAc(b1-3)Gal(b1-4)GlcNAc(b1-2)Man(a1-6)]Man(b1-4)GlcNAc(b1-4)GlcNAc
# Outline: as §1
# [37] = target: GlcNAc(b1-3)Gal(b1-4)GlcNAc(b1-3)Gal(b1-4)GlcNAc(b1-3)Gal(b1-4)GlcNAc(b1-3)Gal(b1-4)GlcNAc(b1-2)Man(a1-3)[GlcNAc(b1-3)Gal(b1-4)GlcNAc(b1-3)Gal(b1-4)GlcNAc(b1-3)Gal(b1-4)GlcNAc(b1-3)Gal(b1-4)GlcNAc(b1-2)Man(a1-6)]Man(b1-4)GlcNAc(b1-4)[Fuc(a1-6)]GlcNAc
# Outline: as §1
# [38] = target: GlcNAc(b1-3)Gal(b1-4)GlcNAc(b1-3)Gal(b1-4)GlcNAc(b1-3)Gal(b1-4)GlcNAc(b1-3)Gal(b1-4)GlcNAc(b1-2)[GlcNAc(b1-3)Gal(b1-4)GlcNAc(b1-3)Gal(b1-4)GlcNAc(b1-3)Gal(b1-4)GlcNAc(b1-3)Gal(b1-4)GlcNAc(b1-6)]Man(a1-6)[GlcNAc(b1-3)Gal(b1-4)GlcNAc(b1-3)Gal(b1-4)GlcNAc(b1-3)Gal(b1-4)GlcNAc(b1-3)Gal(b1-4)GlcNAc(b1-2)Man(a1-3)]Man(b1-4)GlcNAc(b1-4)[Fuc(a1-6)]GlcNAc
# Outline: as §1
binder,measurement,setting,value
B1,glycan array binding signal (z-score),Glc(b1-6)Glc,-0.087
same,glycan array binding signal (z-score),GlcA(b1-3)Gal,-0.112
same,glycan array binding signal (z-score),GlcA(b1-3)GlcNAc,-0.03
same,glycan array binding signal (z-score),GlcA(b1-6)Gal,-0.136
same,glycan array binding signal (z-score),[1],-0.138
same,glycan array binding signal (z-score),[2],-0.152
same,glycan array binding signal (z-score),[3],-0.093
same,glycan array binding signal (z-score),[4],-0.049
same,glycan array binding signal (z-score),[5],-0.143
same,glycan array binding signal (z-score),[6],-0.166
same,glycan array binding signal (z-score),[7],-0.142
same,glycan array binding signal (z-score),[8],-0.044
same,glycan array binding signal (z-score),[9],-0.059
same,glycan array binding signal (z-score),[10],-0.155
same,glycan array binding signal (z-score),[11],-0.132
same,glycan array binding signal (z-score),[12],-0.052
same,glycan array binding signal (z-score),[13],-0.111
same,glycan array binding signal (z-score),[14],-0.031
same,glycan array binding signal (z-score),[15],-0.154
same,glycan array binding signal (z-score),[16],-0.17
same,glycan array binding signal (z-score),[17],-0.053
same,glycan array binding signal (z-score),[18],-0.016
same,glycan array binding signal (z-score),[19],-0.126
same,glycan array binding signal (z-score),[20],-0.149
same,glycan array binding signal (z-score),[21],-0.029
same,glycan array binding signal (z-score),[22],-0.087
same,glycan array binding signal (z-score),[23],-0.158
same,glycan array binding signal (z-score),GlcNAc(b1-3)Fuc,-0.145
same,glycan array binding signal (z-score),GlcNAc(b1-3)Gal,-0.069
same,glycan array binding signal (z-score),[24],-0.114
same,glycan array binding signal (z-score),GlcNAc(b1-3)Gal(b1-4)Glc,-0.11
same,glycan array binding signal (z-score),[25],-0.078
same,glycan array binding signal (z-score),[26],-0.09
same,glycan array binding signal (z-score),[27],-0.055
same,glycan array binding signal (z-score),[28],-0.112
same,glycan array binding signal (z-score),[29],-0.193
same,glycan array binding signal (z-score),[30],0.345
same,glycan array binding signal (z-score),[31],-0.029
same,glycan array binding signal (z-score),[32],-0.049
same,glycan array binding signal (z-score),[33],-0.095
same,glycan array binding signal (z-score),[34],-0.027
same,glycan array binding signal (z-score),[35],-0.07
same,glycan array binding signal (z-score),[36],-0.082
same,glycan array binding signal (z-score),[37],-0.05
same,glycan array binding signal (z-score),[38],-0.032
